“And” between values parts separate entries of the source, which are not always exact repeats. Identical values can stand only once. Hit rate of the full screen: of about 350,000 compounds, about 31,000 (8.9%) were called active. The inconclusive results got no clear call from the source; some entries with a clear call stand among them for comparison. Calls come from the whole dose curve; as a rule, active = well fitted inhibition curve with a large enough effect; inconclusive = small, poorly fitted or top-dose-only effect; inactive = no such curve, though single readings can be large or run the other way. A potency beside an inconclusive call is a rough fit, not a confirmed value. Where a structure was tested more than once in an assay, its records may differ in their call.
What follows are molecules tested against Histone-lysine N-methyltransferase EHMT2 (Homo sapiens) (UniProt Q96KQ7) (assay: qHTS Assay for Inhibitors of Histone Lysine Methyltransferase G9a). Conditions: G9a H3K9 monomethylation, AlphaScreen, 2 h; activity, negative = inhibition: at 59 µM (top of the series) unless noted.
Chain of UniProt Q96KQ7 (Q96KQ7 whole entry, looked up): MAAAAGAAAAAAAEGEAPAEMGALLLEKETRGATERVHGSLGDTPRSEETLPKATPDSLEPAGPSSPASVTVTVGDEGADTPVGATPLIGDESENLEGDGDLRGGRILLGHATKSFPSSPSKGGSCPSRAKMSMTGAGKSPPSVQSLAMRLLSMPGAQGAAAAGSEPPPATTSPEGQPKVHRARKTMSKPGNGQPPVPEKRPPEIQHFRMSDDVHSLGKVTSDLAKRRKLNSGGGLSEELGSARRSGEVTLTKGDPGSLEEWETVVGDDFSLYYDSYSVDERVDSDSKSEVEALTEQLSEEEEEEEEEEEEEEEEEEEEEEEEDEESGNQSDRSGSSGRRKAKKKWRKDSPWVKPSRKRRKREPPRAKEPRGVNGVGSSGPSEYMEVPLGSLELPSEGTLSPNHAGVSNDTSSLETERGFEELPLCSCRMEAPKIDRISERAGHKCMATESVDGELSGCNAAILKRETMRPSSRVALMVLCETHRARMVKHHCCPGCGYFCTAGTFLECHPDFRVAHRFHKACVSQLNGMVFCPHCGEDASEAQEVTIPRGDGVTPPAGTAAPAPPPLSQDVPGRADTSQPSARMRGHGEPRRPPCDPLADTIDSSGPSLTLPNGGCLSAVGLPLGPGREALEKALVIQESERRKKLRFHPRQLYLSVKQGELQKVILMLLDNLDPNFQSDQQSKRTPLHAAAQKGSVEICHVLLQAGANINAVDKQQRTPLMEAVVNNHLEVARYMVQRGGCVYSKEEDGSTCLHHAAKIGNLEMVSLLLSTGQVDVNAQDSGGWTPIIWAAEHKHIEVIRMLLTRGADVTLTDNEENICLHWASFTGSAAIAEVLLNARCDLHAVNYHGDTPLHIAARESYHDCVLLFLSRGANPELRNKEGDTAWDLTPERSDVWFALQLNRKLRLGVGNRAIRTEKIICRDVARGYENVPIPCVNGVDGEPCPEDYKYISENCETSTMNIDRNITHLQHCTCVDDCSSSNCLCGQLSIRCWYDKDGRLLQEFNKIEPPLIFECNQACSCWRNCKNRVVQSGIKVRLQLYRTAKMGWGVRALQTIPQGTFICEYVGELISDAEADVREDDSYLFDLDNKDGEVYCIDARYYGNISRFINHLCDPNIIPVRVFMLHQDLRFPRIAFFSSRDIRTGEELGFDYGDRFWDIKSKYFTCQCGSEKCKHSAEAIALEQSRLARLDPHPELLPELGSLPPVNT
Method in brief: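 G9a (20 nM) preincubated 15 min RT with compounds, then 500 nM biotinylated H3K9 peptide and 20 uM SAM added; 2 h RT reaction. Monomethyl-H3K9 product detected by AlphaScreen with anti-H3K9me1 antibody, streptavidin donor and anti-rabbit IgG acceptor beads.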
% is set by controls: 0 for no effect and ±100 for the full control effect; potency is the fitted concentration of half-maximal effect; tags give direction and shape of the fitted curve.
Note: nearly all actives have a fitted effect of over 75% in size.

Compound	Potency	activity, negative = inhibition
Cc1ccc(/C=C/S(=O)(=O)NCC(=O)OCC(=O)NCc2ccccc2)cc1	inactive	
COc1cc(Br)cc(CN2CCN(C/C=C/c3ccccc3)CC2)c1O	active: 39.8 µM	
Cc1cccc(N(C(=O)CCC(=O)Nc2cccnc2)C(C(=O)NC2CCCC2)c2ccncc2)c1 (centres undefined)	inconclusive: 20 µM [inhibitor, single point]	
COc1ccc(NS(=O)(=O)c2cc(NC(=O)CC3CCCC3)ccc2N2CCOCC2)cc1	inconclusive: 35.5 µM [inhibitor, full curve, poor fit]	
O=C(Oc1ccc(Nc2ncnc3ccccc23)cc1)c1cccnc1	inconclusive: 44.7 µM [inhibitor, partial curve]	
CN1CCN(C(=O)CC2C(=O)NCCN2Cc2ccc(-c3ccccc3)cc2)CC1 (centres undefined)	inconclusive: 44.7 µM [inhibitor, partial curve, poor fit]	
CCNC(=O)CCSc1nnc(-c2ccc(O)cc2)o1	active: 12.6 µM	
CCNC(=O)NC(=O)CSc1ccc(S(=O)(=O)N(C)C2CCCCC2)cn1		inactive: 10.9% [at 12.7 µM]
O=C(Nc1ccccn1)c1cccc(S(=O)(=O)N2CCCc3ccccc32)c1	inactive	
CCN(C(=O)CN1CCc2ccccc21)c1c(N)n(Cc2ccccc2)c(=O)[nH]c1=O	active: 28.2 µM	
COc1ccccc1N1CCN(C(=O)COc2ccc(Cl)cc2)CC1	inconclusive: 70.8 µM [inhibitor, single point]	
CC1(C)Cc2c(sc(NC(=O)c3ccc4ncsc4c3)c2C(N)=O)C(C)(C)N1	inconclusive: 89.1 µM [inhibitor, partial curve, poor fit]	
CCOC(=O)CSC1=NC(=O)/C(=C\c2ccc(OC(C)=O)cc2)S1	active: 39.8 µM	
CCN(CC)c1ccc(NC(=O)c2cc(CN3CCCC3)on2)c(C)c1	active: 14.1 µM	
Cc1cccc2cc(CN(Cc3ccco3)C(=O)NC3CCCCC3)c(=O)[nH]c12	inconclusive: 28.2 µM [inhibitor, partial curve, poor fit]	
CCCCn1c(N)c(N(CC(C)C)C(=O)CSc2ccc([N+](=O)[O-])cc2)c(=O)[nH]c1=O	active: 50.1 µM	
O=C(NCC(c1ccc(F)cc1)N1CCOCC1)c1cccc(Br)c1 (centres undefined)	inconclusive: 50.1 µM [inhibitor, partial curve, poor fit]	
C=CCn1c(C)cc(C(=O)CSc2nnc(NCc3ccccc3)s2)c1C	inconclusive: 22.4 µM [inhibitor, single point]	
CCOc1ccc(NC(=O)Cn2nnc(C(=O)OC)c2C(=O)OC)cc1	inactive	
Cc1ccc(-n2nnnc2SCC(=O)c2ccc3c(c2)NC(=O)CO3)c(C)c1		inconclusive: -76.3% [inhibitor]
CCCCn1c(Oc2cccc(C(=O)OC)c2)nc2c1c(=O)n(C)c(=O)n2C	inactive	
CCOc1ccc(Cn2ccnc2)cc1[N+](=O)[O-]	inconclusive: 1.41 µM [inhibitor, partial curve, poor fit]	
CC(=O)c1c(C)[n+]([O-])c2ccc3c(non3O)c12	inconclusive: 89.1 µM [inhibitor, single point]	
CCN1CCN(C(=O)C2COc3ccccc3O2)CC1 (centres undefined)	inconclusive: 25.1 µM [inhibitor, full curve]	
Cc1cccc(NC(=O)CSc2nc(-c3cccs3)cc(C(F)(F)F)c2C#N)c1	inactive	

Compound	Potency	activity, negative = inhibition
CCOC(=O)c1ccc(NC(=S)N(CCCN2CCCC2)Cc2cccs2)cc1	inconclusive: 50.1 µM [inhibitor, partial curve]	
COCCn1c(C)cc(C(=O)COC(=O)/C=C/c2c(C)nn(C3CCS(=O)(=O)C3)c2Cl)c1C (centres undefined)	inconclusive: 79.4 µM [inhibitor, single point]	
COc1ccccc1N1CCN(C(c2cc3ccc(C)cc3[nH]c2=O)c2nnnn2C2CCCC2)CC1 (centres undefined)	active: 28.2 µM	
C=CCc1cccc(/C=N/c2ncccc2O)c1O	inconclusive: 1 µM [inhibitor, single point]	
Cc1ccccc1OCCn1ccnc1	inconclusive: 89.1 µM [inhibitor, single point]	
O=c1oc2ccc3ccccc3c2cc1-c1nnc(Nc2ccccc2)s1	inactive	
NC(=O)c1ccsc1NC(=O)COC(=O)c1nc(Cl)ccc1Cl	inconclusive: 89.1 µM [inhibitor, partial curve, poor fit]	
O=S(=O)(Nc1cccc(-c2ccc(N3CCOCC3)nn2)c1)c1ccc(Cl)c(Cl)c1	inactive	
NC(=O)COc1ccccc1C(=O)O	inconclusive: 79.4 µM [inhibitor, partial curve]	
C=CCSc1nc2sc3c(c2c(=O)[nH]1)CCC3	inactive	
O=C(Nc1ccccc1O)c1ccc2c(c1)C(=O)N(c1ccccc1)C2=O	inconclusive: 89.1 µM [inhibitor, single point]	
N#Cc1ccc(CSc2nnc(-c3cccnc3)n2-c2ccccc2)cc1	inconclusive: 89.1 µM [inhibitor, single point]	
O=C(CSc1nnc(-c2cccnc2)n1Cc1ccco1)c1ccccc1		inactive: -15.8% [at 12.7 µM]
CNC[C@H](CC1CCCCC1)NC[C@H](NCCC1CCCC1)[C@H](C)O	inconclusive: 89.1 µM [inhibitor, single point]	
COc1cc(OC)c2c(-c3ccccc3)cc(=O)oc2c1	inactive	
COc1cccc(OCC(=O)NNC(=O)c2ccc3ccccc3c2O)c1	inconclusive: 89.1 µM [inhibitor, single point]	
NCCC1CCCC(CCN)N1 (centres undefined)	active: 2.82 µM and active: 8.91 µM	inactive: 18.2% [at 12.7 µM]
CCOc1ccc(C(=O)N2CCCN(C(=O)c3ccc(OCC)cc3)CC2)cc1	active: 31.6 µM	
CN1CCC(N(C)C(=S)Nc2ccc(SC(F)F)cc2)CC1	inconclusive: 39.8 µM [inhibitor, single point]	
COc1cc(C2Nc3cccc4cccc(c34)N2)cc(OC)c1O	active: 7.94 µM	
COc1ccc(N2CCN(S(=O)(=O)c3ccc(-c4cc(C(F)(F)F)on4)s3)CC2)cc1	inactive	
Cc1cc(C)c(-c2nc3ccccc3s2)[nH]1	active: 50.1 µM	
O=C(CN1CCOCC1)n1c2c(c3ccccc31)CCCC2	inconclusive: 31.6 µM [inhibitor, single point]	
CC(=O)Nc1ccc(S(=O)(=O)N2CCN(C(=O)N3CCCCC3)CC2)cc1		inactive: -0.507% [at 0.501 µM]
O=C(CCCN1C(=O)/C(=C\c2cccs2)SC1=S)Nc1cccc(C(=O)O)c1	inconclusive: 89.1 µM [inhibitor, single point]	

Compound	Potency	activity, negative = inhibition
O=C(Cc1c(O)c2ccccc2oc1=O)c1ccc(C(F)(F)F)cc1	inactive	
CC1=Nn2c(nnc2C2CCCCC2)SC1	inactive	
O=C(NCc1ccncc1)C1CCCN(S(=O)(=O)c2ccc(Br)cc2)C1 (centres undefined)	inactive	
Cc1ccc(NC(=O)CCS(=O)(=O)c2ccc(Br)s2)cc1	inactive	
CC(C)N1CCc2c(sc(N)c2C#N)C1	inconclusive: 79.4 µM [inhibitor, single point]	
COc1ccc(OCC(=O)Nc2ccc3c(c2)n(C)c(=O)n3C)cc1		inactive: -43.3% [at 0.501 µM]
CCc1ccc(CNC(=O)Cc2ccc(NC(=O)C3=C(C)OCCS3)cc2)cc1	inconclusive: 50.1 µM [inhibitor, partial curve, poor fit]	
CCN(CC(=O)Nc1ccc(NC(C)=O)cc1)C(=O)CCCc1nc2ccccc2c(=O)[nH]1	inactive	
CCOC(=O)c1nc2nc(C)cc(=O)n2[nH]1	inconclusive: 89.1 µM [inhibitor, single point]	
O=C(Nc1ccc(N2CCOCC2)cc1)c1cccc(S(=O)(=O)N2CCC(Cc3ccccc3)CC2)c1		inactive: -0.139% [at 12.7 µM]
Cn1cccc1/C=N/NC(N)=S	inconclusive: 25.1 µM [inhibitor, single point]	
Cc1ccc(NC2=CC(=O)C(=O)c3ccccc32)cc1	inconclusive: 31.6 µM [inhibitor, single point]	
c1ccn2c(c1)nc1c2nc2ccccn21	inactive	
COc1ccc(N=Cc2cc(Cc3ccccc3Cl)cc([N+](=O)[O-])c2O)cc1OC	active: 39.8 µM	
COC(=O)c1c(NS(=O)(=O)c2cccs2)sc2c1CCCC2		inconclusive: -64.6% [inhibitor]
NC(=O)[C@H]1CC2(CC(c3cccc(NC(=O)COc4ccc(Cl)cc4)c3)=NO2)CN1C(=O)c1ccccc1C(=O)c1ccccc1 (some centres undefined)	inconclusive: 8.91 µM [inhibitor, single point]	
N/C(=N\OC(=O)Cc1ccccc1[N+](=O)[O-])c1ccccn1		inconclusive: -87.5% [inhibitor]
Cc1[nH]n2c(=O)cc(C(C)C)nc2c1-c1ccccc1	inactive	
O=C(CSc1ncnc2scc(-c3ccc(F)cc3)c12)c1ccc2c(c1)OCCO2	inconclusive: 25.1 µM [inhibitor, single point]	
CC(=O)Nc1ncc2c(n1)CC(c1ccco1)CC2=O (centres undefined)	inactive	
COc1ccccc1NC(=S)N(CCCN1CCOCC1)Cc1cn(C)c2ccccc12	inconclusive: 70.8 µM [inhibitor, single point]	
CN(C)C1=NC[C@H](Cc2ccccc2)N1CCCC1CCCC1	inconclusive: 2.51 µM [inhibitor, partial curve, poor fit]	
O=S(=O)(c1ccc(SCc2ccccc2)nc1)N1CCCC1	inconclusive: 39.8 µM [inhibitor, single point]	
